From PubChem BioAssay AID1460 (National Center for Advancing Translational Sciences (NCATS), 2008)
The whole screen tested about 270,000 compounds, of which about 5,800 (2.1%) were called active. The shares of active, inactive and inconclusive entries below differ from those in the screen. The call rests on the fitted dose curve; in most records, active means well fitted inhibition curve with a large enough effect; inconclusive means small, poorly fitted or top-dose-only effect; inactive means flat fitted curve, though single readings scatter. A potency beside an inconclusive call is a rough fit, not a confirmed value.

molecular target: Microtubule-associated protein tau (Homo sapiens) (UniProt P10636); assay: qHTS for Inhibitors of Tau Fibril Formation, Thioflavin T Binding; settings: recombinant tau K18 P301L, heparin-induced fibrillization, ThT fluorescence; series mostly up to 57.4 µM; activity, negative = inhibition: at the top concentration; further: nearly all actives have a fitted effect of over 55% in size
Method in brief: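 Using a mix of unlabeled (15 uM) and Alexa 594-labeled (0.24 uM) tau K18 P301L, heparin-triggered fibrillization over 6 hr at 37 C was scored by ThT fluorescence.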
On the % scale 0 is the no-effect control and ±100 the full control effect; potency means the concentration at half of the fitted maximal effect; tags describe the fitted curve by direction and shape.

Chain of UniProt P10636 (P10636 whole entry, looked up): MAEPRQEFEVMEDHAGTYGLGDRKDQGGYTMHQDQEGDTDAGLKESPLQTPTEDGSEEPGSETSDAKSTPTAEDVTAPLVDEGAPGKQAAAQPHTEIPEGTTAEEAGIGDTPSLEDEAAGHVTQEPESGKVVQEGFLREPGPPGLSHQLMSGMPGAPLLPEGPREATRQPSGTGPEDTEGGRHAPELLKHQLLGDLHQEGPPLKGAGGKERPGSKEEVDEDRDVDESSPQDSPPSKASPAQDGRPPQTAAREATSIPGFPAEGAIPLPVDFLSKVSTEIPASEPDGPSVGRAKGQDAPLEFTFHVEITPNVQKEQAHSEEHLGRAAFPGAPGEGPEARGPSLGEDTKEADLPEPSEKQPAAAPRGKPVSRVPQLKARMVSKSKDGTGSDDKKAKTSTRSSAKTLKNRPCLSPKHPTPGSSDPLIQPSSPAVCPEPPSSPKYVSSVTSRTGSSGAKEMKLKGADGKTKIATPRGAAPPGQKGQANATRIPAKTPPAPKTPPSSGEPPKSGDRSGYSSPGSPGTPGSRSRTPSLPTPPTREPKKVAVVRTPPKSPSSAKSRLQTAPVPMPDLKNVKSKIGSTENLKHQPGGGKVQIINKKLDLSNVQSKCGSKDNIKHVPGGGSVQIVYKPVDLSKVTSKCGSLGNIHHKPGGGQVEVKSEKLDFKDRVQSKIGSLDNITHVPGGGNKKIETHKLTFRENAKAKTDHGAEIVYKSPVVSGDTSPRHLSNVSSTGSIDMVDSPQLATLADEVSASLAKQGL

Row | Compound | Potency | activity, negative = inhibition
1 | CC(CC(=O)Nc1ccc(Cl)c([N+](=O)[O-])c1)c1ccccc1 (centres undefined) | inconclusive: 22.4 µM [inhibitor, single point] | 
2 | COc1ccc(/C=C2\C(=O)NC(=S)N2C(=O)c2ccc(F)cc2)cc1 | inconclusive: 6.31 µM [inhibitor, partial curve] | 
3 | COc1ccc(C(=O)Nc2ccc3nc(N4CCC(C)CC4)cc(C)c3c2)cc1 | inconclusive: 2 µM [inhibitor, full curve] | 
4 | CCN=c1sc2ccccc2n1CC(O)COc1ccccc1 (centres undefined) | inconclusive: 44.7 µM [inhibitor, single point] | 
5 | CCOc1ccc(CCNC(=O)c2cccc(C#N)c2)cc1OCC |  | inactive: -0.689%
6 | CCCOCCOC(=O)c1[nH]c2c(c1C)C(=O)CC(c1cc(OC)ccc1OC)C2 (centres undefined) | inconclusive: 20 µM [inhibitor, single point] | 
7 | O=C(Nc1nnc(-c2ccccc2)o1)c1ccc(Cl)cc1 |  | inactive: -2.62%
8 | c1cc2cn[nH]c2cc1NC1CCCCCC1 | active: 28.2 µM | 
9 | CCOc1ccc(CCNC(=O)c2cnc3c(-c4ccc(F)cc4)c(C)nn3c2C)cc1OCC | inconclusive: 15.8 µM [inhibitor, partial curve] | 
10 | Cc1ccc(NC(=O)Cn2c(=O)n(Cc3ccco3)c(=O)c3sc4ccccc4c32)cc1C |  | inactive: -4.41%
11 | CC(C)N=C1NN=C(c2ccc(F)cc2)CS1 | inconclusive: 28.2 µM [inhibitor, single point] | 
12 | COc1cccc(/C=C/c2nc(C#N)c(NCCc3ccc(OC)c(OC)c3)o2)c1 | inconclusive: 5.01 µM [inhibitor, partial curve] | 
13 | CCn1c(COc2ccc(OC)cc2)nnc1SCC(=O)Nc1cc(OC)ccc1OC | inconclusive: 22.4 µM [inhibitor, single point] | 
14 | Cc1ccc(N2N=C(c3ccc(F)cc3)CC2c2ccco2)cc1 (centres undefined) | inconclusive: 20 µM [inhibitor, partial curve] | 
15 | CCOc1ccc(CCNC(c2cccc(Cl)c2)c2nnc(-c3ccccc3)o2)cc1OCC (centres undefined) | inconclusive: 12.6 µM [inhibitor, partial curve] | 
16 | Cc1cnnn1-c1cccc([N+](=O)[O-])c1 |  | inactive: -7.21%
17 | Cc1ccc(C(=O)N2CCN=C2SCc2ccc([N+](=O)[O-])cc2)cc1C | inconclusive: 28.2 µM [inhibitor, single point] | 
18 | CCn1cc(CNCc2c(C(=O)N3CCCCC3)nc3c(C)cccn23)cn1 |  | inactive: -15.3%
19 | CCN(CC)c1ccc(NC(=O)COC(=O)c2ccc3ccccc3n2)cc1 | inconclusive: 14.1 µM [inhibitor, partial curve] | 
20 | COc1cc(NS(=O)(=O)c2ccc(NC(=O)/C(=C/c3ccccc3Cl)NC(=O)c3ccccc3)cc2)nc(OC)n1 |  | inactive: -2.96%
21 | CCCCCOC(=O)c1ccc(OC(=O)c2cncc(Br)c2)cc1 | inconclusive: 20 µM [inhibitor, partial curve] | 
22 | O=C(NCCc1c[nH]c2ccccc12)C(=O)NCC(c1cccnc1)N1CCN(c2ccccc2)CC1 (centres undefined) | inconclusive: 11.2 µM [inhibitor, partial curve] | 

Row | Compound | Potency | activity, negative = inhibition
23 | COc1cc(CN2CCN(c3cccc(C)c3C)CC2)cc([N+](=O)[O-])c1O | inconclusive: 0.562 µM [inhibitor, partial curve, poor fit] | 
24 | COc1ccccc1NCC(O)COc1ccc(C(C)(C)C)cc1 (centres undefined) | inconclusive: 12.6 µM [inhibitor, partial curve] | 
25 | CCOc1ccc2nc(SCc3ccccc3C#N)sc2c1 | inconclusive: 14.1 µM [inhibitor, partial curve, poor fit] | 
26 | c1ccc(-c2nc(NCC3CCCO3)c3oc4ccccc4c3n2)cc1 (centres undefined) |  | inactive: -7.37%
27 | CCn1c(=O)c(C(=O)Nc2ccc(C(C)=O)cc2)nc2ccccc21 | inconclusive: 20 µM [inhibitor, partial curve] | 
28 | Clc1ccc(-c2noc(CN3CCN(c4ccccc4)CC3)n2)cc1 | inconclusive: 8.91 µM [inhibitor, partial curve] | 
29 | COc1cc(/C=N/N(C)c2ccccc2)ccc1O | active: 12.6 µM | 
30 | N#CC(C#N)=C1C=CC=CN1/C(=C\c1ccccc1Cl)C(=O)c1ccccc1 | inconclusive: 14.1 µM [inhibitor, partial curve] | 
31 | N#C/C(C(N)=O)=c1/ccc2c(c1)N1C3=C(CCCC3)CC3CCCCC31N=2 (centres undefined) | inconclusive: 3.55 µM [inhibitor, full curve] | 
32 | O=[N+]([O-])c1cc2c(cc1Br)CCN2 | inconclusive: 15.8 µM [inhibitor, partial curve] | 
33 | CCN(CC(=O)Nc1cccc(F)c1)Cc1nc2ccccc2c(=O)[nH]1 |  | inactive: 3.97%
34 | Cc1nn(-c2ccccc2)c2c1C(c1cccnc1)N1C=C(S(=O)(=O)N3CCCCC3)C=CC1=N2 (centres undefined) | inconclusive: 31.6 µM [inhibitor, partial curve] | 
35 | O=c1[nH][nH]c2cc(=O)n(-c3ccc(Cl)cc3)nc12 | inconclusive: 12.6 µM [inhibitor, partial curve] | 
36 | Cc1ccc(CS(=O)(=O)c2ncc(Cl)c(C(=O)Nc3nc4ccc(C)cc4s3)n2)cc1 | active: 22.4 µM | 
37 | COc1ccc(C2=C/C(=C\c3cccc(OC(C)=O)c3)C(=O)O2)cc1 |  | inactive: -15.8%
38 | CC1CCCCN1S(=O)(=O)c1ccc(C(=O)Nc2sc3c(c2C(N)=O)CC(C)(C)NC3(C)C)cc1 (centres undefined) |  | inactive: -0.313%
39 | CC(=O)Nc1ccc(S(=O)(=O)NNC(=O)COc2cccc(C)c2)cc1 |  | inactive: -1.87%
40 | Cc1ccc(/C=C/C(=O)CCC(=O)O)cc1 |  | inactive: -5.41%
41 | O=C(CC(=O)c1cc(Cl)ccc1O)c1ccccc1 | inconclusive: 31.6 µM [inhibitor, single point] | 
42 | CCCCCc1ccc(OCCOCCn2c[n+](C)c3ccccc32)c(CCCCC)c1 | inconclusive: 22.4 µM [inhibitor, partial curve] | 
43 | CCOC(=O)/C(C#N)=C\c1ccc(O)c(OC)c1 | inconclusive: 28.2 µM [inhibitor, partial curve] | 
44 | COC(=O)C1=C(C)N(Cc2ccccc2)C2=C(C(=O)c3ccccc3)C(c3ccccc3)[C@@](O)(C(=O)OC)C(=O)N2C1c1ccccc1 (some centres undefined) | inconclusive: 7.94 µM [inhibitor, single point] | 
